# The whole screen tested about 220,000 compounds, of which about 5,700 (2.6%) were called active. The shares of active, inactive and inconclusive entries below differ from those in the screen. Calls come from the whole dose curve; as a rule, active = well fitted inhibition curve with a large enough effect; inconclusive = small, poorly fitted or top-dose-only effect; inactive = no such curve, though single readings can be large or run the other way. Where the call is inconclusive, the potency comes from a doubtful curve fit.
# Biological target: Lysine-specific demethylase 5B (Homo sapiens) (UniProt Q9UGL1)
# Chain of UniProt Q9UGL1 (Q9UGL1 whole entry, looked up): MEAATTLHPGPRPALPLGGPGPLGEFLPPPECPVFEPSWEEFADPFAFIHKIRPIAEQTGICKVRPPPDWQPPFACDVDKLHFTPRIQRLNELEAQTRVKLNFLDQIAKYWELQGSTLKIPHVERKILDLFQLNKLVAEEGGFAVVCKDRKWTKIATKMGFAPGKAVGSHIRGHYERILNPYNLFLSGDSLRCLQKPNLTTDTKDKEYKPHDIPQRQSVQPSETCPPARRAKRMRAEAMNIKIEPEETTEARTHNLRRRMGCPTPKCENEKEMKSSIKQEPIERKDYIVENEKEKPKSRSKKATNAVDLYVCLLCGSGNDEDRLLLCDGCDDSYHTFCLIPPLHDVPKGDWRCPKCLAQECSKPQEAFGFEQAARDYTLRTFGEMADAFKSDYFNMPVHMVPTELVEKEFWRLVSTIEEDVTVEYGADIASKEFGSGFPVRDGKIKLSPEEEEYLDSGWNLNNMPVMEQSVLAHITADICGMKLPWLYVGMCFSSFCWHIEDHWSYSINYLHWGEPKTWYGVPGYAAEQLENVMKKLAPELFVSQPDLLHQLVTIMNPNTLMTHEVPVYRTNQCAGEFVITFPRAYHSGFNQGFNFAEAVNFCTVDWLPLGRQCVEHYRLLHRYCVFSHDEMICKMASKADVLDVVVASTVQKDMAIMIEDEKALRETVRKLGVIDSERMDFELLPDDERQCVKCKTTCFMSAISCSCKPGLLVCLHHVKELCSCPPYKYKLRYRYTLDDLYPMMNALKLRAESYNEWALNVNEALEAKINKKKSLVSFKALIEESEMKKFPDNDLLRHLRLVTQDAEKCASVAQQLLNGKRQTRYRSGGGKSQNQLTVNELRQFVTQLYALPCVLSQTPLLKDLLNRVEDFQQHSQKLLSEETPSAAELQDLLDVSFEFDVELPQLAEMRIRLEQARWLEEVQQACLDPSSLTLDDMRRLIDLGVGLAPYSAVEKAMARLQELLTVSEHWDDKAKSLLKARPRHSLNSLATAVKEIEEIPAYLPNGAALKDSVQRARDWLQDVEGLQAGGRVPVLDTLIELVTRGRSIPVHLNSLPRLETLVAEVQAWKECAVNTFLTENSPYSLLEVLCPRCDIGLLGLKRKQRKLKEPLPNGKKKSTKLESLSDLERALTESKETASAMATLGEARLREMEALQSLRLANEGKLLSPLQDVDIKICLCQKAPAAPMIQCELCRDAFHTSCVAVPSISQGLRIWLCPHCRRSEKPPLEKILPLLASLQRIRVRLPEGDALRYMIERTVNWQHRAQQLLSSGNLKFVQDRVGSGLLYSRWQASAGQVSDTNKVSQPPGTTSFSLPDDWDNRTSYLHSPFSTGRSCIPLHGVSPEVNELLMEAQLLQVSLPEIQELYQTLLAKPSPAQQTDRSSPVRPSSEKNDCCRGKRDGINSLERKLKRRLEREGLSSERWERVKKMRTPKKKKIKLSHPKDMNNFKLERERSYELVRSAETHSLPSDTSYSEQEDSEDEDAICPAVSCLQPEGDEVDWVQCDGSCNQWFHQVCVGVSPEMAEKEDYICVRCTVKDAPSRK
# Assay: Primary screen for KDM5B Histone Demethylases FDH-coupled qHTS; note: nearly all actives have a fitted effect of over 70% in size; for activity change, negative = inhibition: 0% is about no effect
# Settings: FDH-coupled NADH fluorescence (FDH is formaldehyde dehydrogenase); activity change, negative = inhibition: at 57.7 µM (top of the series) unless noted
# Summary of the method: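 Coupled FDH/NAD⁺ fluorescence readout. KDM5BΔAP 200 nM final; compound titration, 10 min RT preincubation; substrate mix 12.5 µM H3K4me3, 25 µM 2-OG, 50 µM Fe(II), 100 µM ascorbate, 0.25 mM NAD⁺, 0.25 U/mL FDH; ΔRFU over 30 min.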
# Potency is the fitted concentration of half-maximal effect; tags give direction and shape of the fitted curve.
Structure (SMILES),"activity change, negative = inhibition",Potency
COc1ccc(NC(=O)Cn2cccc2-c2nc(-c3ccccc3)no2)c(OC)c1,inactive: 31%,–
Cc1ccc(-c2cccc(N)c2)cc1,–,"inconclusive: 28.2 µM [inhibitor, single point]"
O=C(COc1ccc2ccc(=O)oc2c1)NC1CCCC1,–,"inconclusive: 31.6 µM [inhibitor, partial curve, poor fit]"
COc1ccc(-c2c(C)c3cc(OS(=O)(=O)c4ccc(F)cc4)ccc3oc2=O)cc1,–,"inconclusive: 20 µM [inhibitor, partial curve, poor fit]"
COc1cc(OC)c2c(C)c(CC(=O)Nc3ccc(Cn4cncn4)cc3)c(=O)oc2c1,–,"inconclusive: 28.2 µM [inhibitor, partial curve, poor fit]"
Cc1c(CC(=O)N2CCOCC2)c(=O)oc2cc(O)ccc12,inactive: -3600%,–
COc1cccc(CNC(=O)Cn2nc(C)n3c(cc4cc(C)ccc43)c2=O)c1OC,–,"inconclusive: 17.8 µM [inhibitor, partial curve, poor fit]"
COc1ccc(NC(=O)c2cc([N+](=O)[O-])ccc2NC(=O)CNCc2ccccn2)c(OC)c1,–,"inconclusive: 12.6 µM [inhibitor, partial curve, poor fit]"
COc1ccc(C)cc1NC(=O)CC(c1cccc(F)c1)n1cccc1 (stereo not given),inactive: -29.9%,–
Cc1ccccc1-c1[nH]nc2ncc(-c3cccc(O)c3)nc12,–,"inconclusive: 28.2 µM [inhibitor, partial curve, poor fit]"
Cc1cccc(C)c1-c1nc(C(=O)NCCc2ccc(Cl)cc2)n2ccccc12,–,active: 14.1 µM
O=C(NCCNc1ncccc1C(F)(F)F)Nc1ccccc1F,inactive: -24%,–
Cc1ccc(-n2nc(C)c3c(C(=O)Nc4ccccc4C(F)(F)F)cc(C)nc32)cc1,–,"inconclusive: 17.8 µM [inhibitor, partial curve, poor fit]"
CN1CC(=O)N(C2CNC2)Cc2c1ncnc2N1CCCCC1,–,"inconclusive: 50.1 µM [inhibitor, partial curve]"
C=CCn1c(-n2nc(CC)cc2CC)nc2c1c(=O)[nH]c(=O)n2C,inactive: -7.03%,–
COc1cccc(C(=O)Nc2nc(-c3nnn(-c4ccccc4C(F)(F)F)c3C)ns2)c1,–,"inconclusive: 1.78 µM [inhibitor, partial curve, poor fit]"
COc1cccc(-c2nc(C3CC(=O)N(c4ccc(C)cc4)C3)no2)c1OC (stereo not given),–,"inconclusive: 28.2 µM [inhibitor, single point]"
COc1ccc(-c2nc3ccccc3n2Cc2ccccc2)cc1,–,"inconclusive: 25.1 µM [inhibitor, partial curve, poor fit]"
COc1cccc2cc(-c3cc(=O)oc4ccc(OC(C)=O)cc34)oc12,–,"inconclusive: 39.8 µM [inhibitor, single point]"
COc1cccc(C(=O)N2CCCC(c3nn(-c4ccc(F)cc4)c(=O)[nH]3)C2)c1 (stereo not given),inactive: 10.1%,–
CCN1CCN(c2ccc(N3CCN(S(=O)(=O)c4cccc(C)c4)CC3)nn2)CC1,–,"inconclusive: 14.1 µM [inhibitor, partial curve, poor fit]"
CC(C)NC(=O)/C(C#N)=C\c1cccc(/C=C(/C#N)C(=O)NC(C)C)c1,–,"inconclusive: 5.62 µM [inhibitor, full curve, poor fit]"

Structure (SMILES),"activity change, negative = inhibition",Potency
COc1ccc([C@H]2C[C@@H](O)[C@@H](O)[C@@H]2NCc2cccc(C#N)c2)cc1,–,"inconclusive: 10 µM [inhibitor, single point]"
COC(=O)N1CCC2(C1)N=C(c1ccncc1)C(=O)N2 (stereo not given),inactive: -17.8% [at 86.2 µM],–
Nc1[nH]c(=O)nc(Nc2ccccc2)c1N=O,–,"inconclusive: 25.1 µM [inhibitor, single point]"
COC(=O)c1ccccc1NS(=O)(=O)c1cc2c3c(c1)CC(=O)N3CCC2,–,"inconclusive: 39.8 µM [inhibitor, single point]"
COc1ccc(C2Nc3ccccc3-c3cc(C)nn32)c(OC)c1 (stereo not given),–,"inconclusive: 35.5 µM [inhibitor, partial curve, poor fit]"
CCCCCC1=CCC/C1=N\NC(=O)C(N)=O,inactive: 21.2%,–
CCOc1ccc(-c2nc(C#N)c(N3CCC(C)CC3)o2)cc1,–,"inconclusive: 1.78 µM [inhibitor, partial curve, poor fit]"
Cc1c(C(C)(C)C)sc(=N)n1C,inactive: -18.1%,–
COc1ccc(C(=O)Oc2c(Sc3ccccc3)c(C)nn2-c2ccccc2)c(OC)c1,–,"inconclusive: 3.55 µM [inhibitor, partial curve, poor fit]"
CC(C)Cc1ccc(C(Nc2ccc3nnnn3n2)c2cccs2)cc1 (stereo not given),inactive: -22.8%,–
Cc1ccc(NC(=O)Nc2ccc(C)n(CC(=O)NC3CCCC3)c2=O)cc1,–,"inconclusive: 25.1 µM [inhibitor, single point]"
CCN1CCN(CC(=O)Nc2c(OC)cccc2OC)CC1,–,"inconclusive: 12.6 µM [inhibitor, partial curve, poor fit]"
COc1ccc(CNC(=O)CCC2N=C3c4ccccc4N=C(SCC(=O)NCCc4ccc(OC)c(OC)c4)N3C2=O)cc1 (stereo not given),–,"inconclusive: 17.8 µM [inhibitor, partial curve, poor fit]"
Cc1cccn2c(=O)c3cc(C(=O)NCc4ccc(F)cc4)c(=N)n(CCCN4CCOCC4)c3nc12,–,"inconclusive: 28.2 µM [inhibitor, partial curve, poor fit]"
O=C(NC1CC1)c1cccn2cncc12,–,"inconclusive: 39.8 µM [inhibitor, single point]"
Cc1ccc(CN2CC3(COCC2=O)CN(c2cnccn2)C3)cc1C,inactive: -4030% [at 86.2 µM],–
CC(C)OC(=O)c1c(NC(=O)c2cccc(C(F)(F)F)c2)sc2c1CCCC2,–,"inconclusive: 39.8 µM [inhibitor, partial curve, poor fit]"
CN1[C@@H](CCC(=O)N2CCN(c3ccccc3)CC2)CNC(=O)[C@@H]2[C@H]1CCN2Cc1ccc(CO)o1,–,"inconclusive: 15.8 µM [inhibitor, partial curve]"
COC(=O)[C@@H]1Cc2c([nH]c3ccccc23)[C@H]2C[C@@H](NCCN(C)C)C[C@@H](c3ccc(F)cc3)N21,–,active: 25.1 µM
C=CCNc1nc(-c2c(N)n(CC(C)C)c(=O)n(C)c2=O)cs1,–,"inconclusive: 20 µM [inhibitor, partial curve, poor fit]"
O=C1CC(C(=O)Nc2ccc3c(c2)OCCO3)N=C(Nc2ccc(F)cc2)N1 (stereo not given),inactive: -0.421%,–
Cc1nccn1-c1ccccc1CNC1CCC2(CCNCC2)CC1,–,"inconclusive: 8.91 µM [inhibitor, partial curve, poor fit]"

Structure (SMILES),"activity change, negative = inhibition",Potency
O=C(NCCc1nc(-c2ccccc2)cs1)C1NCCc2[nH]cnc21 (stereo not given),–,"inconclusive: 28.2 µM [inhibitor, partial curve, poor fit]"
CCN1c2cc(C(=O)NCc3ccccc3C(F)(F)F)ccc2C(=O)N2CCCCCC21 (stereo not given),–,"inconclusive: 28.2 µM [inhibitor, partial curve, poor fit]"
Fc1ccccc1Nc1cnc2ccc(-n3ccnc3)nn12,–,"inconclusive: 56.2 µM [inhibitor, single point]"
COc1cc(C(=O)NCc2coc(-c3cccs3)n2)cc(OC)c1C,inactive: -24%,–
CN(Cc1ccccc1)c1ncccc1CNC(=O)Nc1ccccc1F,–,"inconclusive: 39.8 µM [inhibitor, single point]"
O=C(NN=C1CCCCC1)c1cc(-c2cccs2)nc2ccccc12,–,"inconclusive: 25.1 µM [inhibitor, partial curve, poor fit]"
COc1ccccc1C1CC(=O)Nc2c(-c3ccccc3)nsc21 (stereo not given),inactive: 14.5%,–
COc1cccc(NC(=O)[C@@H]2C[C@@H](c3ccc(F)cc3)N(CCOc3ccccc3)C2)c1,–,"inconclusive: 31.6 µM [inhibitor, partial curve, poor fit]"
CSc1cccc(NC(=O)Cn2cccc2-c2nc(-c3ccc4c(c3)OCO4)no2)c1,–,"inconclusive: 35.5 µM [inhibitor, single point]"
O=C(CC1CCN(C(=O)NC2CCCCC2)C1)NCc1ccccc1 (stereo not given),inactive: -8.58%,–
CC(=O)N1CC2(CCN(CC3CC3)CC2)Cc2ccccc21,inactive: -4.47% [at 149 µM],–
CCN(CC)c1ccc(NC(=O)COCc2cc(-c3ccc4c(c3)OCO4)on2)c(C)c1,–,"inconclusive: 1.41 µM [inhibitor, partial curve, poor fit]"
CCC(C)NC(=O)CSc1nc(-c2ccccc2)[nH]c1S(=O)(=O)c1ccc(C)cc1 (stereo not given),inactive: 5.12%,–
O=C(O)CCn1ncc2cc(OC3CCN(C(=O)C4CCCC4)CC3)ccc21,inactive: -8.2% [at 86.2 µM],–
CCOC(=O)c1ccc(CN(Cc2ccc(F)cc2)S(=O)(=O)c2ccc(F)c(C(=O)Nc3cc(Cl)ccc3OC)c2)cc1,–,"inconclusive: 44.7 µM [inhibitor, single point]"
Cc1ccc(N2CCN(C(=O)c3c(C)oc4ncn(C)c(=O)c34)CC2)c(C)c1,inactive: 12.7%,–
Cc1nc(-c2ccc(S(=O)(=O)Oc3ccccc3Cl)s2)cs1,–,"inconclusive: 28.2 µM [inhibitor, single point]"
Cc1[nH]n(C(N)=S)c(=O)c1N=Nc1cc(C(F)(F)F)ccc1Cl,–,"inconclusive: 35.5 µM [inhibitor, partial curve, poor fit]"
CCCOc1cc(C)c(Cl)cc1S(=O)(=O)Nc1cccnc1,inactive: -6.95%,–
O=S(=O)(c1ccc2nc(NC3CCCCC3)ccc2c1)N1CCCC1,inactive: 176%,–
O=S1(=O)c2ccc(N3CCN(Cc4ccccc4F)CC3)cc2Oc2ccccc2CN1Cc1cn(Cc2ccccc2C(F)(F)F)nn1,–,"inconclusive: 20 µM [inhibitor, partial curve, poor fit]"

# Reference: PubChem BioAssay AID1347165 (National Center for Advancing Translational Sciences (NCATS), 2019)
